# From article PMC4336329 (PLoS ONE, 2015)
# The campaign covered roughly 310,000 compounds. About 14,000 (4.5%) showed an effect of 50% or more. Effects have a minus sign here. The list shows a part of the results.
# Molecular target: human ether-à-go-go-related gene (hERG) potassium channel (human, UniProt Q12809)
# Assay: primary screen, population patch clamp on CHO cells stably expressing hERG
# 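Note: peak tail current of the secondary pulse compared with the same well before compound.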
# Chain of human ether-à-go-go-related gene (hERG) potassium channel (Q12809 whole entry, looked up): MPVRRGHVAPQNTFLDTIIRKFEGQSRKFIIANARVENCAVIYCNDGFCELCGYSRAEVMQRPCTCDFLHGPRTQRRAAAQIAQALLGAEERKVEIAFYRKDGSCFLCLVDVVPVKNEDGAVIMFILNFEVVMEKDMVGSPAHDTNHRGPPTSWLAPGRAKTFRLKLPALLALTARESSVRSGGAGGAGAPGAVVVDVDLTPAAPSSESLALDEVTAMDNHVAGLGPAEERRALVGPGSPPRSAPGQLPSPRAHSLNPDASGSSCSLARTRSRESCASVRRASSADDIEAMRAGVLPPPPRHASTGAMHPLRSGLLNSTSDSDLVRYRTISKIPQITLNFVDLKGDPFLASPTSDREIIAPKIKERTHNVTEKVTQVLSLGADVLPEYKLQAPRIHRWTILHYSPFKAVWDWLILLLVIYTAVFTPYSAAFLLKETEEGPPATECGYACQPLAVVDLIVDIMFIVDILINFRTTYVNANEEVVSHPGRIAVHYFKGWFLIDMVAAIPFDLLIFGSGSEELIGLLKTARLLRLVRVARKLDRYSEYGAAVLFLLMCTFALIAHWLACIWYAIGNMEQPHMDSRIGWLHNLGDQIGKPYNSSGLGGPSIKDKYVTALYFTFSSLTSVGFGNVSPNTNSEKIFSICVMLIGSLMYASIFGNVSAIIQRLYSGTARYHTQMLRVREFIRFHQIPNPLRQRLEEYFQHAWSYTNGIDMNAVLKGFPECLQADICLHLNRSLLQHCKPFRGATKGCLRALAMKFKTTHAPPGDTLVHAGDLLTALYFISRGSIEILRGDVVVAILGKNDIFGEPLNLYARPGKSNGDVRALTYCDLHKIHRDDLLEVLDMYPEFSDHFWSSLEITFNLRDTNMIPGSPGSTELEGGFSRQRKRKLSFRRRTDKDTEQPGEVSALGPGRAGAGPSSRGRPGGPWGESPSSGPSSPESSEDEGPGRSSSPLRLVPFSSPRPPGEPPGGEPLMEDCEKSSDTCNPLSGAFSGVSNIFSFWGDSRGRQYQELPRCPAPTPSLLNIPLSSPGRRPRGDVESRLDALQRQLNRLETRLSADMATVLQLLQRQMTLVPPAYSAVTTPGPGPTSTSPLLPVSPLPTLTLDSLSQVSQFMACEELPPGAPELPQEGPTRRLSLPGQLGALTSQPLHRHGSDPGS
row,Structure (SMILES),"hERG current change (%, negative = inhibition) at 10uM"
1,CCCN1CCN(C(=S)Nc2sc(CC)cc2C(=O)OC)CC1,-1.29%
2,CC1CC(C)CN(C(=O)CNS(=O)(=O)c2cccs2)C1 (stereo not shown),9.23%
3,Cn1c(=NC(=O)CSCC(=O)N2CCCCC2)sc2ccccc21,-11.3%
4,CCC(C)CCN1C(Nc2ccccc2)=NC[C@@H]1C (stereo partly shown),-4.88%
5,CCOc1ccc(NC(=O)CN(C)C(=O)c2cn3ccccc3n2)cc1OCC,-19.2%
6,Cc1ccccc1NC(=O)CSc1ccc(-c2ccccn2)nn1,-8.58%
7,COC(=O)c1ccc(C(=O)OC)c(NC(=O)C2CC2)c1,-68.9%
8,O=C(CN1C(=O)C(=O)N(C2CCCC2)C1=O)NCCc1ccc(Cl)cc1Cl,10.4%
9,CCOc1cc(N2CCOCC2)c(OCC)cc1NC(=O)COC(=O)[C@@H]1CCCN1S(=O)(=O)c1ccccc1F,-24.2%
10,COc1cc(OC)cc(C(=O)NNC(=O)c2ccc(-n3cncn3)c([N+](=O)[O-])c2)c1,5.46%
11,O=C(Cn1cc(C(F)(F)F)cc(Cl)c1=O)NCc1ccc(Cl)cc1,24.2%
12,N#Cc1nc(COc2ccc(Cl)cc2Cl)oc1N1CCOCC1,-14.1%
13,c1ccc(C2Nc3ccccc3-c3nc4ccccc4n32)cc1 (stereo not shown),-18.1%
14,CCCCC1=CC2=C(c3ccco3)C(=O)C(C)(OC(=O)c3ccc(OC)cc3)C(=O)C2=CN1CCOC (stereo not shown),-8.1%
15,S=c1nc(-c2ccccc2)n(CCCn2ccnc2)c2c1CCCC2,7.61%
16,COc1cccc(OC)c1C(=O)Nc1ccc(C(=O)c2ccncc2)cc1,-17.9%
17,Cn1c(CCc2ccccc2)nnc1SCC(=O)N1CCCC1,5.31%
18,O=C(Cc1ccc(F)cc1)NC1CCS(=O)(=O)C1 (stereo not shown),9.36%
19,CCOc1cc(NC(=O)c2ccccn2)c(OCC)cc1NC(=O)c1ccc(C)cc1,-13.7%
20,Cc1ccc(C(=O)NCCCNC(=O)COc2ccc(Cl)cc2)cn1,-0.37%
21,FC(F)(F)c1nnc2ccc(N3CCCCCC3)nn12,-14.3%
22,Cc1cccc(Nc2nc3c(c(=O)n(C)c(=O)n3C)n2CC(O)CO)c1 (stereo not shown),-0.943%

row,Structure (SMILES),"hERG current change (%, negative = inhibition) at 10uM"
1,Cc1ccc(N2CCN(S(=O)(=O)N3CCCCC3)CC2)cc1Cl,8.45%
2,Cc1ccnc(SCCn2c(N3CC(C)CC(C)C3)nc3c2c(=O)n(C)c(=O)n3C)n1 (stereo not shown),-4.49%
3,O=C(NC1CCN(c2ncccn2)CC1)c1cccc(F)c1,16.1%
4,Cc1ccccc1NC(=O)Cn1c(CCC(=O)O)ccc1-c1cccs1,15.4%
5,COc1ccc2c(Cl)c(-c3nnco3)sc2c1,5.13%
6,Cc1cccc(NC(=O)c2cc3c(s2)-c2c(C)cccc2OC3)n1,29.2%
7,O=C(COC(=O)c1cccc(S(=O)(=O)N2CCCCCC2)c1)Nc1ccccc1C(F)(F)F,26.1%
8,Cl.OCCN1CCN(CC#CCn2c3ccccc3c3ccccc32)CC1,-28%
9,Cn1nnc2cc(C(=O)Nc3ccccc3)ccc21,8.48%
10,CCCN(CCC)C(=O)Cc1c(-c2ccc(Cl)cc2)nc2c(Cl)cc(Cl)cn12,-0.882%
11,Cc1ccc(C)c(N(CC(=O)N2CCc3ccccc3C2)S(C)(=O)=O)c1,-29.4%
12,COc1ccccc1C1CC(c2ccc(NS(C)(=O)=O)cc2)=NN1S(=O)(=O)c1ccccc1 (stereo not shown),-69.6%
13,CCCCCCOC(=O)CCn1[nH]c(=O)c2ccccc2c1=O,16.8%
14,COc1ccc(NC(=O)[C@@H]2CCCN2C(=O)c2cccs2)cc1S(=O)(=O)N1CCCCC1,-6.06%
15,COC(=O)c1cn(NC(=O)c2ccc([N+](=O)[O-])c(C)c2)c(=O)c2ccccc12,-6.3%
16,CNC(=O)C(=O)Nc1cc2c3c(c1)CCC(=O)N3CCC2,9.67%
17,CCOCCCNC(=O)NC(=O)CN1CCN(S(=O)(=O)c2ccc3c(c2)OCCO3)CC1,18.7%
18,Cc1nc2sccn2c1P(c1c(C)nc2sccn12)c1c(C)nc2sccn12,-5.06%
19,COc1ccccc1/C=C/CN1CC(C)OC(C)C1 (stereo not shown),-9.11%
20,O=C(NC1=NCCS1)c1cccc(F)c1,8.42%
21,NC(=O)CCN1CCN(Cc2nc(C(c3ccccc3)c3ccccc3)no2)CC1,-25.6%
22,COc1ccc(/C=N/NC(=O)Cn2c(Cc3ccc(OC)c(OC)c3)nc3ccccc32)cc1OC,7.62%

row,Structure (SMILES),"hERG current change (%, negative = inhibition) at 10uM"
1,COC(=O)C1=CN(C2CC2)C=C(C(=O)OC)C1c1ccccc1OC,-12.2%
2,Cc1cccc(/C=N/NC(=O)c2ccc(F)cc2)n1,11.5%
3,CC(NC(=O)c1cc(S(=O)(=O)N2CCOCC2)ccc1F)c1ccc(-n2ccnc2)cc1 (stereo not shown),-72.2%
4,CCOc1ccc(/C=C2\N=C(c3cccs3)OC2=O)cc1OC,12.8%
5,COc1ccc(Nc2oc(COc3ccc(C)cc3)nc2C#N)cc1,-11.4%
6,O=C(CCc1nnc(CCCCc2ccccc2)o1)NCCC1CCCCO1 (stereo not shown),7.94%
7,Cc1ccc(N(C)S(=O)(=O)c2c[nH]c3ccc([N+](=O)[O-])cc23)cc1,24%
8,O=C(c1ccc(CS(=O)Cc2ccc(Cl)cc2)o1)N1CCN(c2ccc(F)cc2)CC1 (stereo not shown),-62.1%
9,CCCn1c(SCc2nc3ccccc3s2)n[nH]c1=O,-44.4%
10,S=C1Cc2ccccc2C(c2ccc(Cl)cc2)N1 (stereo not shown),8.59%
11,CCOc1cc(/C=C(\C#N)C(N)=O)ccc1OS(=O)(=O)c1ccccc1,-5%
12,COc1ccccc1N1CCN(C(=O)C2CCCO2)CC1 (stereo not shown),11.1%
13,COc1ccc(CC(=O)Nc2ccc(N3CCOCC3)cc2)cc1S(=O)(=O)N1CCOCC1,0.936%
14,CCC(C)CCN1C(Nc2ccccc2)=NC[C@@H]1CC(C)C (stereo partly shown),-41.1%
15,CCN1C(=O)[C@@H]2[C@H](C1=O)[C@@H]1C(=O)Nc3ccccc3C(=O)N1[C@@H]2c1cccc(C)c1,-27.4%
16,Cc1nn(C)cc1C(C)Nc1nc2nonc2nc1N1CCCCC1 (stereo not shown),0.196%
17,COc1ccc(NC(=O)c2cccc(NC(=O)c3ccccc3)c2)cc1,2%
18,O=C(COC(=O)/C=C/c1cccc(Br)c1)NCCc1ccccc1,5.72%
19,CCN(CC)CCCN(Cc1cc2cc3c(cc2[nH]c1=O)OCCO3)C(=O)Nc1ccccc1,-41.7%
20,Cn1c(=O)c2cc3ccccc3nc2n(C)c1=O,14.4%
21,CC(C)c1cc(Nc2cccc(O)c2)cc(C(C)C)c1O,4.02%
22,Cc1ccc(-n2cnc3c(sc4nccc(N(C)C)c43)c2=O)cc1,-16.4%

row,Structure (SMILES),"hERG current change (%, negative = inhibition) at 10uM"
1,COc1ccccc1CN1CC(C(=O)N(C)Cc2ccc(C)o2)CCC1=O (stereo not shown),-14.5%
2,O=C(NCCc1ccccc1)c1ccc(Cl)nc1,-0.199%
3,O=C(O)COc1ccccc1C(Nc1ccccn1)c1cc(Cl)c2cccnc2c1O (stereo not shown),1.4%
4,COc1ccc(S(=O)(=O)Nc2ccccc2C(=O)N2CCOCC2)cc1F,10.1%
5,Cc1cccc(C(=O)Oc2ccccc2-c2nnco2)c1,-4.34%
6,Brc1ccc(-c2nnc(-c3ccco3)o2)cc1,-3.06%
7,Oc1cnc2ccccc2c1CN1CCOCC1,16.6%
8,Cc1ccc(C(=O)N2CC(C)OC(C)C2)cc1S(=O)(=O)N1CCCCC1 (stereo not shown),-8.45%
9,COc1cc(NC(=S)NCCSc2ccc(C)cc2)cc(OC)c1,-1.01%
10,O=c1[nH]c(NCCO)nc2ncn(Cc3ccccc3)c12,18.4%
11,COc1cc(NC(=O)COC(=O)c2ccc(C)c(S(=O)(=O)N3CCCCC3)c2)c(C)cc1[N+](=O)[O-],5.33%
12,COc1ccc(Br)cc1S(=O)(=O)N(CC(=O)N1CCOCC1)c1ccccc1,-47%
13,O=C(Nc1ccn(Cc2ccccc2)n1)c1ccc(F)cc1,0.921%
14,Cc1ccc(NC(=O)Cn2cc(C(=O)C3CC3)c3ccccc32)cc1,18.5%
15,CC(=O)NC(Cc1cccc(F)c1)C(=O)NC1CCN(C(=O)c2ccc(C)cc2)CC1 (stereo not shown),33%
16,Cc1cc(-c2nc(C)c(C(=O)NNS(=O)(=O)c3ccccc3)s2)no1,11.9%
17,O=C(NCCc1cccc(Cl)c1)c1ccc(Cl)c([N+](=O)[O-])c1,-40%
18,COc1ccccc1N(CC(=O)N(CC(C)C)CC(C)C)S(=O)(=O)c1cccs1,-7.08%
19,CCOCCCn1c(=S)[nH]c2cc(C(=O)NCCc3ccccc3)ccc2c1=O,15.4%
20,CN1CCC(n2nccc2N)CC1,14.5%
21,Cc1nc(C(C)NC(=O)c2ccc(OC3CCN(Cc4ccccn4)CC3)cc2)c(C)s1 (stereo not shown),-9.05%
22,CCOc1ccc(NCc2nnc(SCc3ccc(Cl)cc3)n2-c2ccccc2)cc1,-8.69%
